The data scatter; read single values as rough.
Experiment: amyloid nucleation score relative to library mode (yeast Sup35 reporter selection) (log enrichment difference); higher = more amyloid nucleation; sequences are the first 22 residues of the Bri2 peptide extended by up to 12 random residues
Details: random library (experiment): 1;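 active = nucleation score significantly above 0 at FDR 0.05; inactive = not significantly above 0 or absent from output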
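Further: [psi-pin-] Saccharomyces cerevisiae expressing SupN fusions, induced by 100 µM Cu2SO4, selected 7 d at 30 °C without adenine and uracil, scored by deep sequencing of output versus input.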

| Sequence | amyloid nucleation score |
| --- | --- |
| EASNCFAIRHFENKFAVETLICFLGSRHRSDLCR | inactive |
| EASNCFAIRHFENKFAVETLICVFSMHSARVVKM | inactive |
| EASNCFAIRHFENKFAVETLICFFLFHGSANRDG | 3.24 |
| EASNCFAIRHFENKFAVETLICYEQTCYC | inactive |
| EASNCFAIRHFENKFAVETLICCYSSSSKMCFGI | 5.01 |
| EASNCFAIRHFENKFAVETLICESRLVWTFEHVV | inactive |
| EASNCFAIRHFENKFAVETLICNRGGWFNGESRR | 3.68 |
| EASNCFAIRHFENKFAVETLICGGRFATWFSHLG | inactive |
| EASNCFAIRHFENKFAVETLICFSELLPYFWS | -0.324 |
| EASNCFAIRHFENKFAVETLICVGQKLHNAWPML | inactive |
| EASNCFAIRHFENKFAVETLICMALHSPIYWLGA | inactive |
| EASNCFAIRHFENKFAVETLICVGITLFRVGWAL | inactive |
| EASNCFAIRHFENKFAVETLICRGNGGPCIYLLW | -0.171 |
| EASNCFAIRHFENKFAVETLICGLATSGIRSAAW | inactive |
| EASNCFAIRHFENKFAVETLICACALFLQRRELV | inactive |
| EASNCFAIRHFENKFAVETLICAWCLEKRVIGAC | inactive |
| EASNCFAIRHFENKFAVETLICMRPRGGPHLWSG | inactive |

| Sequence | amyloid nucleation score |
| --- | --- |
| EASNCFAIRHFENKFAVETLICWLRASVRGEVAG | inactive |
| EASNCFAIRHFENKFAVETLICCTLYLLPLRV | 4.98 |
| EASNCFAIRHFENKFAVETLICLGSGYYYWVLLR | inactive |
| EASNCFAIRHFENKFAVETLICVMAQYNFKNAVG | inactive |
| EASNCFAIRHFENKFAVETLICVLEASP | inactive |
| EASNCFAIRHFENKFAVETLICWGGNFHEVSRKD | 3.12 |
| EASNCFAIRHFENKFAVETLICARGAWPVAVGTG | inactive |
| EASNCFAIRHFENKFAVETLICCGQLPSGWKRMV | inactive |
| EASNCFAIRHFENKFAVETLICRGMWSGCKADLE | inactive |
| EASNCFAIRHFENKFAVETLICMR | inactive |
| EASNCFAIRHFENKFAVETLICENWMQVGSKLQC | inactive |
| EASNCFAIRHFENKFAVETLICDQEATRRRVCPS | inactive |
| EASNCFAIRHFENKFAVETLICERRDYTCPLPGR | inactive |
| EASNCFAIRHFENKFAVETLICYVGSVGRRSQWA | inactive |
| EASNCFAIRHFENKFAVETLICYRKRVWGEYYSA | inactive |
| EASNCFAIRHFENKFAVETLICDRLEGRLTEVAA | inactive |

Same assay, conditions: random library (experiment): 2

| Sequence | amyloid nucleation score |
| --- | --- |
| EASNCFAIRHFENKFAVETLICLNLKVAD | inactive |
| EASNCFAIRHFENKFAVETLICIWSMNRCNVAAG | inactive |
| EASNCFAIRHFENKFAVETLICVLLIF | inactive |
| EASNCFAIRHFENKFAVETLICGSQFLIGRFIWQ | -0.262 |
| EASNCFAIRHFENKFAVETLICKTSWIDMVQLVR | inactive |
| EASNCFAIRHFENKFAVETLICETAVQYRNGTAS | 2.96 |
| EASNCFAIRHFENKFAVETLICHGSGRCHDMYWG | 3.22 |
| EASNCFAIRHFENKFAVETLICYLFTATIFLVSV | inactive |
| EASNCFAIRHFENKFAVETLICRINLDGPYYGRG | 3.61 |
| EASNCFAIRHFENKFAVETLICGYEVA | inactive |
| EASNCFAIRHFENKFAVETLICTMFGNWYGMRLV | inactive |
| EASNCFAIRHFENKFAVETLICQDTSAWLCWPSW | 7.17 |
| EASNCFAIRHFENKFAVETLICDYLLVCE | inactive |
| EASNCFAIRHFENKFAVETLICGNSDTRNGGDGG | inactive |
| EASNCFAIRHFENKFAVETLICRKGV | inactive |
| EASNCFAIRHFENKFAVETLICKKLYDC | inactive |
| EASNCFAIRHFENKFAVETLICQGVVIKPVLVLL | inactive |
| EASNCFAIRHFENKFAVETLICAQVGFSIVAVLV | 0.371 |
| EASNCFAIRHFENKFAVETLICVVPCVDRCCLTL | 2.8 |
| EASNCFAIRHFENKFAVETLICQKWSLCY | inactive |
| EASNCFAIRHFENKFAVETLICMTVYSYVVFTLG | inactive |
| EASNCFAIRHFENKFAVETLICCLCKFCRYDFLS | 1.63 |
| EASNCFAIRHFENKFAVETLICTYRSYSCDVAYL | 2.77 |
| EASNCFAIRHFENKFAVETLICEIRLLEVNCTGW | 6.06 |

| Sequence | amyloid nucleation score |
| --- | --- |
| EASNCFAIRHFENKFAVETLICILQVCLPLKLEE | inactive |
| EASNCFAIRHFENKFAVETLICRLKAKYIRLFMC | inactive |
| EASNCFAIRHFENKFAVETLICDLCVRGRLAEC | inactive |
| EASNCFAIRHFENKFAVETLICYMQRFLNPRMEK | inactive |
| EASNCFAIRHFENKFAVETLICKLLVSYVDSAKI | inactive |
| EASNCFAIRHFENKFAVETLICITSCYFKFSRDG | 0.519 |
| EASNCFAIRHFENKFAVETLICMVCTRMKQSKWG | inactive |
| EASNCFAIRHFENKFAVETLICLEKVFLFSSCQR | inactive |
| EASNCFAIRHFENKFAVETLICDASRLSLRGGKG | inactive |
| EASNCFAIRHFENKFAVETLICFMKSVVSCLSLC | inactive |
| EASNCFAIRHFENKFAVETLICFSVTDVMSRSLV | 2.49 |
| EASNCFAIRHFENKFAVETLICCDVRF | 6.66 |
| EASNCFAIRHFENKFAVETLICLIRSSTRFGPDT | inactive |
| EASNCFAIRHFENKFAVETLICIYCPMSQTVNRE | 9.19 |
| EASNCFAIRHFENKFAVETLICCEQETIL | inactive |
| EASNCFAIRHFENKFAVETLICVRLDVHVGFW | inactive |
| EASNCFAIRHFENKFAVETLICALFLTSWACNLG | inactive |
| EASNCFAIRHFENKFAVETLICTTPGVWRSLRLR | inactive |
| EASNCFAIRHFENKFAVETLICVHELMFNISARR | 6.89 |
| EASNCFAIRHFENKFAVETLICQN | inactive |
| EASNCFAIRHFENKFAVETLICISGRSVWHLKAK | inactive |
| EASNCFAIRHFENKFAVETLICTCLRLNVGSVEV | inactive |
| EASNCFAIRHFENKFAVETLICVNGVCDLFIER | 8.79 |

Same assay, conditions: random library (experiment): 3

| Sequence | amyloid nucleation score |
| --- | --- |
| EASNCFAIRHFENKFAVETLICACHCRILLLLEA | inactive |
| EASNCFAIRHFENKFAVETLICLIVPEEFHSPAG | 7.02 |
| EASNCFAIRHFENKFAVETLICGVSCKKVLGSTA | inactive |
| EASNCFAIRHFENKFAVETLICFFHQASRECVVS | inactive |
| EASNCFAIRHFENKFAVETLICPCNSQVRLWL | 0.419 |
| EASNCFAIRHFENKFAVETLICVAVSFRGSWDVS | inactive |
| EASNCFAIRHFENKFAVETLICFRIDLNVSCRED | 5.71 |
| EASNCFAIRHFENKFAVETLICVIYYGHRCSGAS | 1.64 |
| EASNCFAIRHFENKFAVETLICLVSVGCNEVSLD | 7.01 |
| EASNCFAIRHFENKFAVETLICDLCVCYVWSVTC | 5.45 |
| EASNCFAIRHFENKFAVETLICFLCLMLPEWLA | inactive |
| EASNCFAIRHFENKFAVETLICDGSARRMHRVII | -0.0179 |
| EASNCFAIRHFENKFAVETLICRMQGVARKVGYR | inactive |
| EASNCFAIRHFENKFAVETLICKSTEMWNGIVGH | inactive |
| EASNCFAIRHFENKFAVETLICRDSWGGAVFWWL | inactive |
| EASNCFAIRHFENKFAVETLICNKTCPVNVLSS | inactive |
| EASNCFAIRHFENKFAVETLICCYTLSNR | 7.79 |
| EASNCFAIRHFENKFAVETLICVLSAMVVQKLGG | -0.135 |
| EASNCFAIRHFENKFAVETLICHSMFVRRCCRIK | inactive |

| Sequence | amyloid nucleation score |
| --- | --- |
| EASNCFAIRHFENKFAVETLICCICPV | 7.45 |
| EASNCFAIRHFENKFAVETLICMYSTYWDESG | -0.267 |
| EASNCFAIRHFENKFAVETLICATSNCSVVNAME | 0.59 |
| EASNCFAIRHFENKFAVETLICWMVAITCGTKLV | 1.2 |
| EASNCFAIRHFENKFAVETLICRQSRGRC | inactive |
| EASNCFAIRHFENKFAVETLICGRMCTCMQYAVV | 0.0944 |
| EASNCFAIRHFENKFAVETLICVSRIAIVLGLSL | inactive |
| EASNCFAIRHFENKFAVETLICCGAKNASPVVMR | inactive |
| EASNCFAIRHFENKFAVETLICRCWRPGALQAWK | -0.0179 |
| EASNCFAIRHFENKFAVETLICIGMVCC | 3.46 |
| EASNCFAIRHFENKFAVETLICDQAIRIRYQNLE | inactive |
| EASNCFAIRHFENKFAVETLICNKYCIRC | inactive |
| EASNCFAIRHFENKFAVETLICMN | inactive |
| EASNCFAIRHFENKFAVETLICAARV | inactive |
| EASNCFAIRHFENKFAVETLICNGVLVEEWERWA | 3.33 |
| EASNCFAIRHFENKFAVETLICVPEYVY | inactive |
| EASNCFAIRHFENKFAVETLICDTESMHSWDVCQ | inactive |
| EASNCFAIRHFENKFAVETLICCGCFGP | 9.35 |
| EASNCFAIRHFENKFAVETLICWMLWRRLGMEGG | inactive |

From the supplement of paper PMC12067230
